The list shows a part of the results.
Tests used:
HSkMC = human skeletal muscle cells; assay: cytotoxicity call (relative viability < 0.9); details: 10 µM
HepG2 = assay: cytotoxicity call (relative viability < 0.9); details: 10 µM
S. aureus RN4220 = assay: growth inhibition call (relative growth <= 0.2); details: 50 µM

Row | SMILES | cytotoxicity call (HSkMC) | cytotoxicity call (HepG2) | growth inhibition call (S. aureus RN4220)
1 | COc1ccc(S(=O)(=O)Nc2ccc3c(c2)C(=O)N([C@H](C)CO)C[C@@H](C)[C@@H](CN(C)C(=O)c2ccccc2)OCCCC[C@H](C)O3)cc1 | inactive | inactive | inactive
2 | C[C@@H]1CN([C@H](C)CO)C(=O)c2cc(NS(=O)(=O)c3cccs3)ccc2O[C@@H]1CN(C)Cc1ccc(-c2ccccc2)cc1 | active | active | inactive
3 | C[C@@H]1CN([C@@H](C)CO)C(=O)c2cc(C#Cc3ccncc3)cnc2O[C@@H]1CN(C)S(=O)(=O)c1ccccc1F | inactive | inactive | inactive
4 | CCCCC[C@H](O)/C=C/[C@H]1[C@H](O)CC(=O)[C@@H]1C/C=C\CCCC(=O)O | inactive | inactive | inactive
5 | Cc1ccc(S(=O)(=O)N(C)C[C@@H]2OCCCC[C@@H](C)Oc3ccc(NC(=O)Nc4ccc(C(F)(F)F)cc4)cc3C(=O)N([C@H](C)CO)C[C@@H]2C)cc1 | inactive | inactive | inactive
6 | C[C@H](CO)N1C[C@H](C)[C@H](CN(C)Cc2ccncc2)OCCCC[C@H](C)Oc2ccc(NS(=O)(=O)c3ccc(Cl)cc3)cc2C1=O | inactive | inactive | inactive
7 | Cc1ccc(S(=O)(=O)Nc2cccc3c2O[C@H](CN(C)CC2CC2)[C@H](C)CN([C@H](C)CO)C3=O)cc1 | inactive | inactive | inactive
8 | CC(=O)N[C@@H](Cc1ccc(F)cc1)C(=O)O | inactive | inactive | inactive
9 | C[C@@H]1CN([C@@H](C)CO)C(=O)Cc2cc(NC(=O)CCN3CCOCC3)ccc2O[C@@H]1CN(C)S(=O)(=O)c1cn(C)cn1 | inactive | inactive | inactive
10 | C[C@@H]1CN([C@H](C)CO)C(=O)c2cccc(NC(=O)Nc3ccc4c(c3)OCO4)c2O[C@H]1CN(C)Cc1ccc(Oc2ccccc2)cc1 | active | active | inactive
11 | COCC(=O)Nc1ccc2c(c1)OC[C@H](C)N(C(=O)Cc1ccccn1)C[C@H](C)[C@@H](OC)CN(C)C2=O | inactive | inactive | inactive
12 | C[C@H]1CN([C@@H](C)CO)C(=O)c2cccc(NS(=O)(=O)c3cccs3)c2O[C@@H]1CN(C)Cc1ccc(Cl)c(Cl)c1 | inactive | inactive | inactive
13 | C[C@@H]1CN([C@H](C)CO)C(=O)c2cccc(NS(=O)(=O)c3cn(C)cn3)c2O[C@@H]1CN(C)Cc1ccc2c(c1)OCO2 | inactive | inactive | inactive
14 | C[C@H]1CN([C@@H](C)CO)C(=O)c2cccc(NC(=O)CCCCCC(=O)Nc3ccccc3N)c2O[C@H]1CN(C)C(=O)Nc1cccc2ccccc12 | inactive | inactive | inactive
15 | C[C@H](CO)N1C[C@H](C)[C@H](CN(C)C(=O)Nc2ccc3c(c2)OCO3)Oc2cc(C#Cc3ccncc3)ccc2S1(=O)=O | inactive | inactive | inactive
16 | C[C@H]1CN([C@@H](C)CO)C(=O)c2cc(NS(=O)(=O)c3ccccc3)ccc2O[C@H]1CN(C)S(=O)(=O)c1ccc(F)cc1 | inactive | inactive | inactive
17 | C[C@H]1CN([C@@H](C)CO)C(=O)c2cc(NC(=O)Nc3ccc4c(c3)OCO4)ccc2O[C@H]1CN(C)Cc1ccc(C(F)(F)F)cc1 | inactive | inactive | inactive
18 | CCNC(=O)c1cc2c(c(-c3cccc(-c4cccc(F)c4)c3)n1)[C@H](CCO)N([S@@](=O)C(C)(C)C)C2 | inactive | active | inactive
19 | CC(C)NC(=O)N(C)C[C@H]1Oc2ccc(NC(=O)C3CCCCC3)cc2CC(=O)N([C@@H](C)CO)C[C@@H]1C | inactive | inactive | inactive
20 | COc1cccc(S(=O)(=O)N[C@H]2CC[C@@H](CCn3cc(-c4ccccc4OC)nn3)O[C@@H]2CO)c1 | inactive | inactive | inactive
21 | C[C@@H]1CN([C@@H](C)CO)C(=O)c2cc(NS(=O)(=O)c3cn(C)cn3)ccc2O[C@@H](C)CCCCO[C@@H]1CN(C)S(=O)(=O)c1ccccc1 | inactive | inactive | inactive
22 | Cc1cccc(S(=O)(=O)N2C[C@@H](O)COC[C@H]3O[C@H](CC(=O)NCc4ccc(Cl)c(Cl)c4)CC[C@@H]32)c1 | inactive | inactive | inactive
23 | COc1ccccc1S(=O)(=O)N[C@@H]1CC[C@@H](CCNC(=O)C2CCOCC2)O[C@@H]1CO | inactive | inactive | inactive
24 | C[C@H]1CCCCO[C@H](CN(C)C(=O)Nc2ccc3c(c2)OCO3)[C@@H](C)CN([C@@H](C)CO)C(=O)c2cc(NC(=O)Cc3ccccc3)ccc2O1 | inactive | inactive | inactive
25 | C[C@@H]1CN([C@@H](C)CO)C(=O)c2cc(NC(=O)Nc3cccc4ccccc34)ccc2O[C@@H](C)CCCCO[C@@H]1CN(C)C(=O)NC1CCCCC1 | inactive | inactive | inactive
26 | Cc1ccc(S(=O)(=O)Nc2cccc3c2O[C@@H](CN(C)Cc2ccc(Cl)c(Cl)c2)[C@H](C)CN([C@@H](C)CO)C3=O)cc1 | inactive | inactive | inactive
27 | F[C@H]1CCNC1 | inactive | inactive | inactive
28 | C[C@@H]1CCCCO[C@@H](CN(C)C(=O)Nc2cccc3ccccc23)[C@H](C)CN([C@@H](C)CO)C(=O)c2cc(NC(=O)c3ccncc3)ccc2O1 | inactive | inactive | inactive

Row | SMILES | cytotoxicity call (HSkMC) | cytotoxicity call (HepG2) | growth inhibition call (S. aureus RN4220)
29 | Clc1ccc(-c2nnc(Nc3ccccc3)s2)c(Cl)c1 | inactive | inactive | inactive
30 | COc1ccc(NC(=O)N(C)C[C@H]2Oc3c(NC(=O)c4cc(C)nn4C)cccc3C(=O)N([C@@H](C)CO)C[C@H]2C)cc1 | inactive | inactive | inactive
31 | CN1C(=O)c2cc(NC(=O)Cc3cccs3)ccc2OC[C@H]2O[C@H](CC(=O)NCCCN3CCOCC3)CC[C@H]21 | inactive | inactive | inactive
32 | NC(CO)C(=O)O (stereo not given) | inactive | active | inactive
33 | Cc1ccc(S(=O)(=O)N(C)C[C@@H]2Oc3c(NS(=O)(=O)c4ccccc4)cccc3C(=O)N([C@@H](C)CO)C[C@@H]2C)cc1 | inactive | inactive | inactive
34 | C[C@@H]1CN([C@@H](C)CO)C(=O)c2cccc(NC(=O)Nc3ccccc3)c2O[C@@H]1CN(C)C(=O)Nc1cccc2ccccc12 | active | inactive | inactive
35 | CC(=O)NCCc1cnc[nH]1 | inactive | inactive | inactive
36 | C[C@@H]1CN([C@H](C)CO)C(=O)c2cc(NS(=O)(=O)c3cn(C)cn3)ccc2O[C@@H]1CN(C)C(=O)NC1CCCCC1 | inactive | inactive | inactive
37 | C[C@@H]1CN([C@@H](C)CO)C(=O)c2cc(NC(=O)c3ccncc3)ccc2O[C@@H](C)CCCCO[C@H]1CN(C)C(=O)C1CCCCC1 | inactive | inactive | inactive
38 | CCc1nc2ccc(C(=O)NCCOc3ccc(OC)cc3)cn2c1N(CC)Cc1cccc(Br)c1 | inactive | inactive | inactive
39 | CC(C)(CO)C(O)C(=O)NCCCO (stereo not given) | inactive | inactive | inactive
40 | C[C@@H]1CN([C@@H](C)CO)C(=O)c2cc(NC(=O)Nc3ccc(F)cc3)ccc2O[C@@H](C)CCCCO[C@@H]1CN(C)Cc1ccc(C(=O)O)cc1 | inactive | inactive | inactive
41 | C[C@@H]1CN([C@H](C)CO)C(=O)c2cccc(NS(C)(=O)=O)c2O[C@H]1CN(C)S(=O)(=O)c1ccc(Cl)cc1 | inactive | inactive | inactive
42 | CN1CCN(c2c(F)cc3c(=O)c(C(=O)O)cn4c3c2SCC4)CC1 | inactive | inactive | active
43 | O=C(C[C@@H]1C=C[C@H](NC(=O)C2CCOCC2)[C@@H](CO)O1)NCCc1cscn1 | inactive | inactive | inactive
44 | C[C@H]1CN([C@@H](C)CO)C(=O)Cc2cc(NS(=O)(=O)c3cn(C)cn3)ccc2O[C@@H]1CN(C)C(=O)Nc1ccc(F)cc1 | inactive | inactive | inactive
45 | CO[C@H]1CN(C)C(=O)c2cc(NC(=O)C3CC3)ccc2OC[C@@H](C)N(C(=O)Cc2ccccn2)C[C@@H]1C | inactive | inactive | inactive
46 | C[C@@H]1CN([C@@H](C)CO)C(=O)Cc2cc(NC(=O)Cc3ccccc3)ccc2O[C@H]1CN(C)Cc1ccc(Cl)c(Cl)c1 | inactive | inactive | inactive
47 | CN1CCN(C(=O)C[C@@H]2C=C[C@@H](NC(=O)c3ccc4c(c3)OCO4)[C@@H](CO)O2)CC1 | inactive | inactive | inactive
48 | Cc1ccc(S(=O)(=O)Nc2ccc3c(c2)C(=O)N([C@H](C)CO)C[C@@H](C)[C@H](CN(C)C(=O)Nc2ccc4c(c2)OCO4)OCCCC[C@H](C)O3)cc1 | inactive | inactive | inactive
49 | C[C@@H]1CN([C@@H](C)CO)S(=O)(=O)c2ccc(C#CC3(O)CCCC3)cc2O[C@@H]1CN(C)C(=O)Nc1ccccc1 | inactive | inactive | inactive
50 | C[C@@H]1CN([C@H](C)CO)C(=O)c2cccc(NC(=O)C3CCOCC3)c2O[C@H]1CN(C)C(=O)NC1CCCCC1 | inactive | inactive | inactive
51 | C[C@@H]1CN([C@@H](C)CO)C(=O)c2cc(NS(=O)(=O)c3ccc(Cl)cc3)ccc2O[C@@H]1CN(C)S(C)(=O)=O | inactive | inactive | inactive
52 | CN[C@@H]1[C@H](O[C@H]2[C@H](O[C@@H]3[C@@H](O)[C@H](O)[C@@H](NC(=N)N)[C@H](O)[C@H]3NC(=N)N)O[C@@H](C)[C@]2(O)C=O)O[C@@H](CO)[C@H](O)[C@H]1O | inactive | inactive | inactive
53 | Cc1ccc(S(=O)(=O)N(C)C[C@H]2Oc3c(NC(=O)NC(C)C)cccc3C(=O)N([C@@H](C)CO)C[C@H]2C)cc1 | inactive | inactive | inactive
54 | C[C@@H]1CCCCO[C@H](CN(C)S(=O)(=O)c2ccccc2)[C@@H](C)CN([C@H](C)CO)C(=O)c2cc(NC(=O)Nc3ccc(C(F)(F)F)cc3)ccc2O1 | inactive | active | inactive
55 | C[C@@H]1CCCCO[C@@H](CN(C)S(=O)(=O)c2ccc(F)cc2)[C@@H](C)CN([C@@H](C)CO)C(=O)c2cc(NC(=O)Nc3ccc(F)cc3)ccc2O1 | inactive | active | inactive

Source: the antibiotic and cytotoxicity screens of Wong et al. (2023)
